Test results reported in PubChem BioAssay AID651820 (National Center for Advancing Translational Sciences (NCATS), 2012).
In all, about 340,000 compounds went through this assay and about 12,000 (3.5%) were called active. The inconclusive results got no clear call from the source; some entries with a clear call stand among them for comparison. The call rests on the fitted dose curve; in most records, active means well fitted inhibition curve with a large enough effect; inconclusive means small, poorly fitted or top-dose-only effect, or another doubt; inactive means no such curve, though single readings can be large or run the other way. No potency is given beside an inconclusive call; the fits are too rough.

test: qHTS Assay for Inhibitors of Hepatitis C Virus (HCV); conditions: Huh7.5.1 HCVcc-Cre (HCVcc is cell-culture hepatitis C virus) infection, luciferase reporter, 44 h; series mostly up to 41.8 µM
Outline: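 HCVcc-Cre virus at an moi near 0.5 was added right after compound to cells cultured 4 h from seeding (1,000 cells/well). Luciferase activity was determined 44 h later, 15 min after substrate addition at RT.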
Potency means the concentration at half of the fitted maximal effect; tags describe the fitted curve by direction and shape.

Row | Structure (SMILES) | Potency
1 | COC(=O)C(Cc1ccc(O)cc1)NC(=O)Cn1cc(C)c(=O)[nH]c1=O (stereo unspecified) | inconclusive [inhibitor, single point]
2 | CN(C)S(=O)(=O)c1cc(NC(=O)COC(=O)Cc2cccc3ccccc23)ccc1Cl | inactive
3 | COc1ccc(S(=O)(=O)NNc2nc(C)cc(C)n2)cc1[N+](=O)[O-] | inactive
4 | CCOc1ccc(Oc2cc(NC(=O)c3ccco3)cc([N+](=O)[O-])c2)cc1 | inconclusive [inhibitor, single point]
5 | O=c1c(N=Nc2ccc(O)cc2)c(-c2ccccc2)[nH]n1-c1ccc([N+](=O)[O-])cc1 | inconclusive [inhibitor, full curve, poor fit]
6 | CC1CCN(c2nc(-c3ccccc3O)nc3ccccc23)CC1 | inconclusive [inhibitor, full curve]
7 | Cc1nc2ccc([N+](=O)[O-])cc2c(=O)n1Cc1ccccc1Br | inconclusive [inhibitor, single point]
8 | CCOc1ccccc1C1N=C(c2ccc(OC)cc2)CC(c2ccccc2O)N1 (stereo unspecified) | inconclusive [inhibitor, partial curve]
9 | COc1ccc(NC(=S)Nc2ccc(F)cc2)c(OC)c1 | inactive
10 | COc1ccc2[nH]c3c(=O)n(Cc4ccco4)cnc3c2c1 | inactive
11 | CN(CC(=O)Nc1ccccc1Cl)C1CCCCC1 | inactive
12 | Cc1ccc2cc(CCl)c(Cl)nc2c1 | active: 10 µM
13 | COc1ccc(N2CCN(C(=O)c3cc4c(-c5cccc(OC)c5)nn(C)c4s3)CC2)cc1 | active: 6.31 µM
14 | CC(C)CC(=O)Nc1ccccc1-c1nnn(CC(=O)N2CCc3ccccc3C2)n1 | inconclusive [inhibitor, full curve]
15 | CCOC(=O)c1ccc(NC(=O)Cn2nnc3ccccc32)cc1 | inconclusive [inhibitor, single point]
16 | Oc1ccc(NCc2ccc(OCc3ccccc3)cc2)cc1 | inactive
17 | Cc1cccc(C)c1NC(=O)c1ccc(CN2CCc3ccccc3C2)cc1 | inconclusive [inhibitor, single point]
18 | O=C(CSc1nc2ccccc2c(=O)n1-c1ccc(F)cc1)Nc1cc(S(=O)(=O)N2CCOCC2)ccc1Cl | inactive
19 | CN(C)CCCNc1cc(C(C)(C)C)nc2c(-c3ccccc3)cnn12 | inconclusive [inhibitor, single point]
20 | CCOC(=O)C1=C(C)NC(C)=C(C(=O)OCC)C1c1cn(-c2ccccc2)nc1-c1ccco1 | inactive
21 | CCCCCCCNC(=O)c1cc(-c2ccncc2)nc2ccccc12 | inconclusive [inhibitor, single point]
22 | O=C(NCCc1ccccc1)C1CCN(C2CCN(Cc3ccco3)CC2)CC1 | inconclusive [inhibitor, partial curve]
23 | COCCOC(=O)c1c(C)oc2ccc(NS(=O)(=O)c3ccccc3)cc12 | inconclusive [inhibitor, single point]

Row | Structure (SMILES) | Potency
24 | N#Cc1c(N2CCCCC2)nc(N2CCCCC2)c2c1CCN(Cc1ccccc1)C2 | inconclusive [inhibitor, partial curve]
25 | COc1ccc(C(=O)/C=C/c2cn(CC(O)CN3CCOCC3)c3ccccc23)cc1 (stereo unspecified) | inconclusive [inhibitor, single point]
26 | O=C(c1cc(-c2ccc(Cl)cc2)on1)N1CCN(c2ccc(F)cc2)CC1 | inactive
27 | CCCCCc1cc(OC)cc2c1C(=O)OC(C)(C)O2 | inconclusive [inhibitor, partial curve]
28 | CC(NC(=O)c1ccc(C(F)(F)F)cc1)C(c1ccccc1)N1CCOCC1 (stereo unspecified) | inactive
29 | C/C(CCC1CC(C)(C)OC1=O)=N\NC(N)=S (stereo unspecified) | inactive
30 | O=C(NNC(=O)C1CCN(S(=O)(=O)c2ccccc2)CC1)c1ccccc1O | inconclusive [inhibitor, single point]
31 | CCOC(=O)c1ccc(NC(C)=O)c([N+](=O)[O-])c1 | inconclusive [inhibitor, single point]
32 | CCN(CC)S(=O)(=O)c1cccc(C(=O)OCC(=O)c2ccc3c(c2)OCCO3)c1 | inactive
33 | CS(=O)(=O)N(Cc1ccc(Cl)cc1)c1ccc(C(=O)N2CCN(c3ccccc3)CC2)cc1 | inactive
34 | CCOC(=O)c1ccc(N=c2sc(C(=O)OC)cc(=O)n2-c2ccc(C(=O)OCC)cc2)cc1 | active: 10 µM
35 | Cc1ccc(/C=N/NC(=O)c2cc(C)oc2C)cc1 | inconclusive [inhibitor, full curve]
36 | Cc1cccc(NC(=S)N2CCN(Cc3ccc4c(c3)OCO4)CC2)c1C | inconclusive [inhibitor, partial curve]
37 | CCOc1cccc(C(=O)Nc2cc(C)ccc2NC(=O)c2ccco2)c1 | inconclusive [inhibitor, full curve, poor fit]
38 | Cc1ccc(-n2cc(C(=O)c3cc(Cl)ccc3O)cc(C#N)c2=O)cc1 | inconclusive [inhibitor, partial curve]
39 | CSc1cccc(NC(=O)c2ccco2)c1 | inactive
40 | CCOC(=O)C(=CNc1ccc(OC)cc1[N+](=O)[O-])C(=O)OCC | inconclusive [inhibitor, partial curve, poor fit]
41 | CN(c1ccccc1)S(=O)(=O)c1cccc(NC(=O)CSc2ncc(C(F)(F)F)cc2Cl)c1 | inconclusive [inhibitor, partial curve]
42 | O=C(CSc1nnc(-c2ccccc2)c(-c2ccccc2)n1)Nc1ccc(Br)cn1 | inconclusive [inhibitor, partial curve]
43 | CCNC(=S)NNC(=O)c1cc(-c2ccc(OC)cc2)nc2ccccc12 | inactive
44 | Cc1ccc(SC2=C(N(C)C)C(=O)c3ccccc3C2=O)cc1 | inconclusive [inhibitor, single point]
45 | COc1cc2ccccc2cc1C(=O)Nc1ccc(CN2CCOCC2)cc1 | active: 6.31 µM
46 | CCOC(=O)c1ccc(NC(=O)Cn2ncc(Cl)c(Cl)c2=O)cc1 | inconclusive [inhibitor, partial curve]
